Experimental data from PubChem BioAssay AID504832 (National Center for Advancing Translational Sciences (NCATS), 2011).
Hit rate of the full screen: of about 310,000 compounds, about 18,000 (5.8%) were called active. Inconclusive means that the source gave no clear call. Such entries were picked first, then a sample of the others. The call rests on the fitted dose curve; in most records, active means well fitted inhibition curve with a large enough effect; inconclusive means small, poorly fitted or top-dose-only effect, or another doubt; inactive means no such curve, though single readings can be large or run the other way. No potency is given beside an inconclusive call; the fits are too rough.

experiment: Primary qHTS for delayed death inhibitors of the malarial parasite plastid, 48 hour incubation; settings: P. falciparum luciferase growth in erythrocytes; series mostly up to 28.7 µM; activity change, negative = inhibition: at the top concentration
Procedure, shortened: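 Firefly luciferase activity from engineered P. falciparum reports growth; inhibitors lower the luminescent signal. Cultures contained 2% hematocrit erythrocytes at 0.1% final parasitemia.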
On the % scale 0 is the no-effect control and ±100 the full control effect; potency means the concentration at half of the fitted maximal effect; tags describe the fitted curve by direction and shape.

SMILES | activity change, negative = inhibition | Potency
CC(c1ccccn1)N(Cc1ccco1)C(=S)Nc1cccc(F)c1 (centres undefined) | inactive: 10.8% | 
CC(C)C[C@H](NC(=O)C1(c2ccccc2)CCN(C(=O)[C@H]2CSCN2C(=O)OC(C)(C)C)CC1)C(=O)O | inactive: -10.9% | 
COc1ccc(NC(=O)N2CCC(n3nnc4cc(C)ccc43)CC2)cc1 |  | inconclusive [inhibitor, partial curve, poor fit]
CC1Cc2ccccc2N1S(=O)(=O)c1cnc[nH]1 (centres undefined) | inactive: -20.7% | 
Cc1ccc(S(=O)(=O)N2CCCCC2)cc1NC(=O)c1cc2ccccc2o1 |  | inconclusive [inhibitor, single point]
CCN(CC)CCN1C(=O)C2C(C(=O)Nc3ccc(C(C)C)cc3)C3C=CC2(O3)C1C(=O)NC1CCCCC1 (centres undefined) |  | inconclusive [inhibitor, single point]
Cc1ccc(NC(=O)COC(=O)c2ccc(Cl)nc2)cc1S(=O)(=O)N1CCCCC1 |  | inconclusive [inhibitor, single point]
Cc1cc(N(C)Cc2ccccc2)nc2cc(O)ccc12 |  | active: 1.65 µM
CN1CCN(c2cc(-c3cc(O)c4ncccc4c3)ccn2)CC1 |  | active: 11.7 µM
O=C(COc1ccccc1)n1nc(-c2ccc(Cl)cc2)nc1NCc1ccco1 | inactive: 93.7% | 
CCN(CC)CCCNC(=O)Cn1cc2c(n1)CCC(C)C2 (centres undefined) |  | inconclusive [inhibitor, partial curve, poor fit]
O=C(NC1CCCCC1)c1cc([N+](=O)[O-])ccc1N1CCOCC1 | inactive: 19.6% | 
N#C/C(=C\c1ccc(O)c(O)c1)C(=O)NCc1ccccc1 |  | inconclusive [inhibitor, single point]
COc1ccc(N(CC(=O)N2CCN(c3cccc(C)c3)C(C)C2)S(=O)(=O)c2c(C)n[nH]c2C)cc1 (centres undefined) |  | inconclusive [inhibitor, partial curve, poor fit]
O=C(NC1CC2CCCC(C1)N2Cc1ccccc1)c1cccc(Cl)c1 (centres undefined) |  | inconclusive [inhibitor, full curve, poor fit]
Cc1ccc(N2CCC(N3CCN(C)C(CCO)C3)CC2)cc1 (centres undefined) | inactive: 4.12% | 
O=C(CSc1nnc(-c2ccccc2F)n1CCc1ccccc1)Nc1ccc2[nH]c(=O)[nH]c2c1 | inactive: 20.6% | 
CCC1(c2ccccc2)NC(=O)N(CC(=O)Nc2ccc(N3CCCC3)cc2C)C1=O (centres undefined) |  | inconclusive [inhibitor, single point]
O=C(CNC(=O)c1ccco1)N/N=C/c1ccc(C(=O)O)cc1 |  | inconclusive [inhibitor, single point]
